Assay results published in PubChem BioAssay AID485281 (National Center for Advancing Translational Sciences (NCATS), 2010).
Hit rate of the full screen: of about 350,000 compounds, about 260 (0.074%) were called active. This list was built around the results that the source calls inconclusive (neither active nor inactive); the mix of calls is not that of the screen. Calls follow the shape of the dose curve; as a rule, active = well fitted inhibition curve with a large enough effect; inconclusive = small, poorly fitted or top-dose-only effect; inactive = no such curve, though single readings can be large or run the other way. Potencies beside an inconclusive call are fits to weak or partial responses and may not hold up.

target: Ferritin light chain (Equus caballus) (UniProt P02791); assay: qHTS Assay for Identification of Novel General Anesthetics; settings: apoferritin/1-aminoanthracene competitive binding, fluorescence; activity change, negative = displacement: at 77.5 µM (top of the series); also: nearly all actives have a fitted effect of over 20% in size
UniProt P02791, sequence (P02791 whole entry, looked up): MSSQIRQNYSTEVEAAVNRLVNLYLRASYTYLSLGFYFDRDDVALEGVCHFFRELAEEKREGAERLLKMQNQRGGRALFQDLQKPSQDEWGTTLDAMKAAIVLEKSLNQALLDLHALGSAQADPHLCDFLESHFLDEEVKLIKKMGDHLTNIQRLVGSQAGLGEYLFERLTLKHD
Outline: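 Horse-spleen apoferritin (10 uM) was mixed with 50% saturated 1-aminoanthracene in PBS, exposed to compounds for 10 min at room temperature, and read for fluorescence (ex 380 nm, em 535 nm). Competitive displacement was fitted with a four-parameter Hill equation.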
% is scaled to controls: 0 for no effect and ±100 for the full control effect; potency is read from the fitted curve at half-maximal effect; tags tell the direction and shape of the fitted curve.

Row | SMILES | Potency | activity change, negative = displacement
1 | Cc1c(C(=O)OC2CCCCC2)sc2nc[nH]c(=O)c12 | inconclusive: 50.1 µM [inhibitor, single point] | 
2 | Cc1nc(N2CCN(C(=O)COc3ccccc3)CC2)c2c(C)c(C)sc2n1 | inconclusive: 28.2 µM [inhibitor, partial curve] | 
3 | CCOC(=O)N1CCN(Cc2nc3cc(NC(=O)c4ccc([N+](=O)[O-])cc4)ccc3n2C(C)C)CC1 | inconclusive: 5.01 µM [inhibitor, full curve] | 
4 | COC(=O)c1[nH]c2ccc(Cl)cc2c1NC(=O)CN1CCc2cc(OC)c(OC)cc2C1 | inconclusive: 11.2 µM [inhibitor, partial curve] | 
5 | Cc1cc(C)cc(C(=O)NC(CC(N)=O)c2ccc(N3CCC(Br)CC3)c([N+](=O)[O-])c2)c1 (stereo not given) | inconclusive: 50.1 µM [inhibitor, single point] | 
6 | CC1CCN(C2CCN(S(=O)(=O)c3ccc(F)cc3)CC2)CC1 |  | inactive: -7.92%
7 | O=C(Nc1ccc(S(=O)(=O)N2CCOCC2)cc1)c1ccc(Cl)cc1Cl |  | inactive: -21.1%
8 | Cc1ccc(/C=N/c2sc3c(c2C#N)CCC3)o1 | inconclusive: 14.1 µM [inhibitor, partial curve] | 
9 | CC(C)[C@H](NC(=O)c1ccco1)C(=O)OCC(=O)N1CCc2ccccc21 | inconclusive: 28.2 µM [inhibitor, partial curve] | 
10 | O=C(CN1C(=O)C2(SCC(=O)N2c2ccc(Cl)cc2)c2ccccc21)NCCc1ccccc1 (stereo not given) | inconclusive: 2.82 µM [inhibitor, full curve, poor fit] | 
11 | COc1ccc(Cl)cc1NS(=O)(=O)c1c(C)[nH]c(=O)[nH]c1=O | inconclusive: 10 µM [inhibitor, partial curve] | 
12 | CS(=O)(=O)N1CCc2cc(C(=O)Nc3ccc(COCC(F)(F)F)cc3)ccc21 | inconclusive: 10 µM [inhibitor, partial curve] | 
13 | CCSc1nc(-c2ccccc2)nc(C(Cl)Cl)n1 |  | inactive: -8.06%
14 | N#CC(=C1SC=CS1)c1nc(-c2ccccc2)cs1 | inconclusive: 28.2 µM [inhibitor, partial curve] | 
15 | CCOC(=O)c1nnn(CC(=O)NC(=O)Nc2ccc(F)cc2)c1C(=O)OCC | inconclusive: 4.47 µM [inhibitor, full curve] | 
16 | N#Cc1ccc(-c2cn3c(n2)SCC3)cc1 |  | inactive: -3.38%
17 | COc1ccc(CNc2ccc3c(c2)CCC3)cc1Br | inconclusive: 28.2 µM [inhibitor, partial curve] | 
18 | CCCCC/C=C\C[C@H](O)/C=C/c1cccc(C[C@H](O)CCCCO)n1 | inconclusive: 31.6 µM [inhibitor, partial curve] | 
19 | CCOc1ccc(-c2c(C(=O)N/N=C/C3CC=CCC3)nnn2-c2nonc2N)cc1 (stereo not given) | inconclusive: 15.8 µM [inhibitor, partial curve] | 
20 | O=c1cc(CN2CCN(C/C=C/c3ccccc3)CC2)c2cc(O)ccc2o1 | inconclusive: 15.8 µM [inhibitor, partial curve] | 
21 | CCN(CC)S(=O)(=O)c1ccc(/C=C/C(=O)Nc2ccc(F)cc2F)cc1 | inconclusive: 39.8 µM [inhibitor, single point] | 
22 | O=C(COC(=O)C1=COCCO1)Nc1ccc(Oc2ccccc2)cc1 | inconclusive: 31.6 µM [inhibitor, partial curve, poor fit] | 

Row | SMILES | Potency | activity change, negative = displacement
23 | CCC1(C(=O)c2ccc(Cl)cc2)C2c3ccccc3OC(=O)C21C(=O)Nc1ccccc1 (stereo not given) | inconclusive: 17.8 µM [inhibitor, partial curve] | 
24 | CC(C)Cc1cc(C(=O)Nc2cc(C(F)(F)F)ccc2Cl)no1 | inconclusive: 10 µM [inhibitor, partial curve, poor fit] | 
25 | Oc1ccc(NCc2ccccc2OCc2ccccc2Cl)cc1 | inconclusive: 20 µM [inhibitor, partial curve] | 
26 | O=Cc1ccccc1OCCOc1ccc([N+](=O)[O-])cc1 | inconclusive: 22.4 µM [inhibitor, partial curve] | 
27 | Cc1ccc(C(=O)OCn2ncc(Cl)c(Cl)c2=O)cc1 | inconclusive: 28.2 µM [inhibitor, partial curve] | 
28 | CCc1ccc(/C=C2\Oc3cc(OS(C)(=O)=O)ccc3C2=O)cc1 | inconclusive: 28.2 µM [inhibitor, partial curve, poor fit] | 
29 | Cc1ccc(C)c(NS(=O)(=O)c2ccccc2C)c1 | inconclusive: 12.6 µM [inhibitor, partial curve] | 
30 | O=C(CSc1nnc(C2CC2)n1Cc1ccccc1)c1cc2ccccc2o1 | inconclusive: 28.2 µM [inhibitor, partial curve] | 
31 | CCOC(=O)c1oc2ccccc2c1NC(=O)c1cccc(OC)c1 | inconclusive: 22.4 µM [inhibitor, partial curve] | 
32 | COc1ccc(C(=O)NCc2nnc(SCC(=O)Nc3ccc(F)cc3)n2-c2ccccc2)cc1 |  | inactive: 35.2%
33 | Cc1csc(N/N=C/c2ccc(O)c([N+](=O)[O-])c2)n1 | inconclusive: 35.5 µM [inhibitor, single point] | 
34 | Cc1cc2ccccn2c1C(=O)c1ccccc1Br | inconclusive: 50.1 µM [inhibitor, single point] | 
35 | Oc1cc2c(c(Cl)c1O)CCNCC2c1ccccc1 (stereo not given) |  | inactive: -1.97%
36 | O=C(CCCCCN1C(=O)C2C3C=CC(C3)C2C1=O)Nc1nccs1 (stereo not given) | inconclusive: 31.6 µM [inhibitor, partial curve] | 
37 | CN(C)S(=O)(=O)c1ccc(NC(=O)Cc2ccc(S(=O)(=O)N3CCOCC3)s2)cc1 | inconclusive: 14.1 µM [inhibitor, partial curve] | 
38 | Cc1ccccc1-c1noc(-c2cc(C(C)C)[nH]n2)n1 | inconclusive: 17.8 µM [inhibitor, partial curve] | 
39 | CC(=O)N[C@H]1C(O[C@@H]2O[C@H](C[C@@H](O)[C@H]3O[C@@H](N4CCC(=O)NC4=O)[C@H](O)[C@@H]3O)[C@H](O)[C@H](O)[C@H]2NC(=O)/C=C/CCCCCCCCCCC(C)C)OC(CO)[C@@H](O)[C@@H]1O (stereo not given in full) | inconclusive: 28.2 µM [inhibitor, single point] | 
40 | CC1CC(C)CN(c2ccc(-n3cnnn3)cc2[N+](=O)[O-])C1 (stereo not given) | inconclusive: 28.2 µM [inhibitor, partial curve] | 
41 | COc1ccc(CNC(=O)/C=C/c2cc3c(cc2Br)OCO3)cc1 |  | inactive: -15.9%
42 | CCCCCCOc1ccc(/C(N)=N/O)cc1 | inconclusive: 15.8 µM [inhibitor, partial curve] | 
43 | O=c1c2c3c(sc2n(CCN2CCCC2)c(=O)n1Cc1ccco1)CCCCC3 | inconclusive: 17.8 µM [inhibitor, partial curve] | 
44 | O=C1c2ccccc2C(=O)N1Cc1cc(-c2ccccc2Cl)no1 | inconclusive: 35.5 µM [inhibitor, partial curve] | 

Row | SMILES | Potency | activity change, negative = displacement
45 | CCCn1[nH]cc(SC)c(=O)c1=O |  | inactive: -7.34%
46 | Oc1ccc(CNc2ccccc2O)cc1 | inconclusive: 25.1 µM [inhibitor, partial curve] | 
47 | CCc1ccc(CNC(=O)C2CCN(C(=O)c3ccc(-n4ccc5ccccc54)s3)CC2)cc1 |  | inactive: 106%
48 | Cc1ccccc1-c1noc(-c2ccc(N3CCCC3)c([N+](=O)[O-])c2)n1 |  | inactive: -4.51%
49 | CC(C)CCOP(=O)(c1ccc(N(C)C)cc1)C(O)c1c(Cl)cccc1Cl (stereo not given) |  | inactive: -20%
50 | O=C(NNC1=Nc2ccccc2SC1)c1ccccc1F |  | inactive: -14.4%
51 | S=C(NCc1ccccc1)N1CCN(c2ccccc2)CC1 |  | inactive: -3.11%
52 | CCOc1ccc(N(C(=O)c2ccc(OC)cc2)S(=O)(=O)c2ccc3c(c2)n(C)c(=O)n3C)cc1 | inconclusive: 15.8 µM [inhibitor, partial curve] | 
53 | O=C(CN1CCc2ccccc21)NC(=O)NCc1ccccc1 | inconclusive: 39.8 µM [inhibitor, single point] | 
54 | COc1ccc(OC(=O)CCc2c[nH]c3ccccc23)cc1 | inconclusive: 31.6 µM [inhibitor, partial curve] | 
55 | O=C(COC(=O)c1ccc(NS(=O)(=O)c2cccs2)cc1O)Nc1ccc(F)cc1 | inconclusive: 39.8 µM [inhibitor, partial curve] | 
56 | COc1cccc(-n2c(SCC(=O)NCCC3=CCCCC3)nc3n[nH]c(C)c3c2=N)c1 | inconclusive: 22.4 µM [inhibitor, partial curve] | 
57 | Cc1ccc(N2C(N)=NC(N)=NC23CCCC3)c(C)c1 |  | inactive: -6.6%
58 | O=C(CNC(=O)c1cccc(Cl)c1)N/N=C/c1cccnc1 | inconclusive: 12.6 µM [inhibitor, partial curve] | 
59 | Cc1cc(C)cc(NC(=O)CSc2nnc(CNC(=O)c3c(F)cccc3Cl)o2)c1 | inconclusive: 56.2 µM [inhibitor, single point] | 
60 | CCN(CC)S(=O)(=O)c1ccc2c(c1)N(CC(=O)Nc1c(C)cc(C)cc1C)C(=O)CS2 | inconclusive: 11.2 µM [inhibitor, partial curve] | 
61 | Cc1ccccc1CNC(=O)Nc1ccc(Cl)cc1 |  | inactive: -16.3%
62 | Cc1ccc(C(=O)N2CCC(Cc3ccccc3)CC2)cc1[N+](=O)[O-] | inconclusive: 31.6 µM [inhibitor, partial curve] | 
63 | N#C/C(=N\Nc1ccc(Cl)cc1)C(=O)c1ccccc1 | inconclusive: 39.8 µM [inhibitor, single point] | 
64 | COC(=O)c1c(C(=O)OC)c2cc(C(=O)c3ccccc3)ccn2c1Cl | inconclusive: 10 µM [inhibitor, partial curve] | 
65 | Cc1cc(C)n(-c2nnc(C)n2/N=C/c2ccccc2OCc2ccccc2Cl)n1 | inconclusive: 17.8 µM [inhibitor, partial curve] | 
